Results taken from patent US20230109208A1 (priority 2020, published 2023).

Test system: inflammation-induced lung injury resulting from Coronavirus (SARS-CoV-2) infection
Conditions: paper examples

B1: Lenzilumab: Humaneered recombinant monoclonal antibody, derived from mouse antibody LMM102, targeting and neutralizing human GM-CSF (antibody, chains of the INN, looked up, V domains shown)
VH: QVQLVQSGAEVKKPGASVKVSCKASGYSFTNYYIHWVRQAPGQRLEWMGWINAGNGNTKYSQKFQGRVTITRDTSASTAYMELSSLRSEDTAVYYCVRRQRFPYYFDYWGQGTLVTVSS
VL: EIVLTQSPATLSVSPGERATLSCRASQSVGTNVAWYQQKPGQAPRVLIYSTSSRATGITDRFSGSGSGTDFTLTISRLEPEDFAVYYCQQFNKSPLTFGGGTKVEIK
2 point improvement in the NIAID eight point ordinal hospital scale: faster
number of hospital days: reduction
permanent pulmonary function impairment: reduction
time to recovery (6, 7, or 8 on the eight point ordinal hospital scale): faster
mortality rates (regimen per example): reduction
patients requiring ICU admission (regimen per example): reduction
patients requiring mechanical ventilation (regimen per example): reduction
